The results in this text go back to PubChem BioAssay AID485344 (National Center for Advancing Translational Sciences (NCATS), 2010).

The campaign covered roughly 340,000 compounds. About 6,900 (2%) were called active. Cut-off read from the data, not from the text of the source: active = inhibition above about 30%; inactive = below that, where a call was filed. Only a part is listed here, and it is no random draw. The source gives no active or inactive call for entries shown without one.

UniProt P14416, sequence (P14416 whole entry, looked up): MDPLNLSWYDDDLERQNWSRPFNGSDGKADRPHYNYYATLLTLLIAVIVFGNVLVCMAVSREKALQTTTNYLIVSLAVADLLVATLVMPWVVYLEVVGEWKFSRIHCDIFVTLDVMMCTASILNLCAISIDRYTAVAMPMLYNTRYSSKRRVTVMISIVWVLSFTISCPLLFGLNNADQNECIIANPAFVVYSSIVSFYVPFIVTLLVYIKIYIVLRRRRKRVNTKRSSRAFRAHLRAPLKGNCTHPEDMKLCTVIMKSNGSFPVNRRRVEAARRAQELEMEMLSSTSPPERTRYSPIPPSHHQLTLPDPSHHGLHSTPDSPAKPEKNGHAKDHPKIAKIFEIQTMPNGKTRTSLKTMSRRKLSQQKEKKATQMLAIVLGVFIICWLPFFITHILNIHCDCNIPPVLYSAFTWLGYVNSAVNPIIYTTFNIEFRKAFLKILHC

In the experiment the target is D(2) dopamine receptor (Homo sapiens) (UniProt P14416). The experiment is described as follows: HTS Assay for Allosteric Antagonists of the Human D2 Dopamine Receptor: Primary Screen for Antagonists. Note: 0% is about no effect. To be noted: HEK293 TREx D2 cells, calcium flux, dopamine EC80; at 10 µM; stronger effect = higher value. In a few lines:
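Dopamine at EC80 is the agonist stimulus; test compounds precede it by 180 s. Calcium flux read kinetically in a force-coupled, inducible HEK293 T-REx D2 cell line.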
For orientation: inhibition means the drop in the measured response relative to a control, in per cent. On to `Cc1ccc([N+](=O)[O-])c(NC(=O)COC(=O)C2CC3CCCC(C2)C3=O)c1C` (centres undefined), for which the inhibition is active: 36.4%.

On to `CN(C)c1ccc(CNc2nc(-c3ccco3)nn2C(=O)c2cccc([N+](=O)[O-])c2)cc1`, for which the inhibition is -19.6%.

As to `CCOc1ccc(-n2c(SCc3nc(-c4ccccc4C)no3)nnc2-c2ccccc2)cc1`, the inhibition was found to be 3.66%.

On to `Cc1ccc(S(=O)(=O)c2nnn3c2nc(Nc2ccc(C(C)C)cc2)c2sccc23)cc1C`, for which the inhibition is 14.6%.

Regarding `CC(C)Cc1nn2c(=O)cc(COC(=O)c3ccccc3NC(=O)c3ccccc3)nc2s1`, the inhibition was 14.5%.

With `COCCCn1c(=N)c(C(=O)NC2CCCC2)cc2c(=O)n3ccccc3nc21`, the inhibition amounted to 16%.

Regarding `Cc1ccc(CCNC(=O)CCSCc2ccc(Cl)cc2)cc1`, the inhibition is -3.11%.

`Cc1ccc(-c2nc3c4cnn(-c5cc(Cl)ccc5Cl)c4ncn3n2)cc1`: the inhibition was 0.81%.

As for `Cc1nc2nc(SCC(=O)NC(C)c3ccccc3)nn2c(C)c1Cc1c(F)cccc1Cl` (centres undefined), the inhibition is 8.76%.

`CCN(c1ccccc1C(=O)O)S(=O)(=O)c1cccc2nsnc12`: the inhibition is active: 30.6%.

`COC(=O)c1ccc(NC(=O)CC2C(=O)N(c3cccc(OC)c3)C(=O)N2Cc2cccc(OC)c2)cc1` (centres undefined): the inhibition worked out at 8.79%.

For `CCOc1ccc(CN2C(=O)c3ccccc3Sc3ccc(C(=O)NCc4ccc(C)cc4)cc32)cc1`, the inhibition is -27.5%.

On to `CC(=O)NC(CC(=O)OCC(=O)N1c2ccccc2NC(=O)C1(C)C)c1ccccc1` (centres undefined), for which the inhibition is active: 52.4%.

With `O=C(CSc1oc(-c2ccco2)nc1S(=O)(=O)c1ccc(Cl)cc1)c1ccccc1`, the inhibition came out at 11.1%.

`COc1cccc(CSc2nc3n(n2)C(c2ccccc2C)C(C(=O)Nc2ccccc2OC)=C(C)N3)c1` (centres undefined): the inhibition was determined as 2.2%.

Consider `Nc1cnccc1C(=O)O`, for which the inhibition was active: 42.6%.

In the case of `CCCCC12CN3CC(C)(CN(C1)C3c1c(C)[nH]c(=O)[nH]c1=O)C2=O` (centres undefined), the inhibition was 12.2%.

On to `Cc1cccc(CS(=O)(=O)Cc2ccc(C(=O)NCc3ccc(Cl)cc3)o2)c1`, for which the inhibition is -16.9%.

`Fc1ccccc1OCCCN1CCOCC1`: the inhibition is active: 31.1%.

Consider `COc1ccc(-c2cccc(NS(=O)(=O)c3cc(C)c(Cl)cc3C)c2)nn1`, for which the inhibition is -5.97%.

In the case of `Cn1nc(C(F)(F)F)c2cc(C(=O)Nc3ccc(Cl)cc3)sc21`, the inhibition was active: 64.4%.

For the compound `CCN(CCCNC(=O)c1nn(-c2ccc(OC)cc2)c(=O)c2c1c1ccccc1n2C)c1cccc(C)c1`, the inhibition came to 2.88%.

Consider `Cc1cccc(Cn2c(C)c(C)c3cc(C(=O)NCc4ccc(C)o4)ccc32)c1`, for which the inhibition amounted to 12.3%.

Turning to `Cc1cc(NC(=O)CN(C)S(=O)(=O)c2ccc3c(c2)CCC(=O)N3)ccc1Br`, the inhibition turned out to be 24.1%.

Take `CCOc1ccc(NC(=O)CN2C(=O)C(c3ccccc3)=NC23CCCCCC3)cc1`: the inhibition was -2%.

As to `Cc1ccc(-c2nn(-c3ccccc3)cc2C(=O)NCCCN2CCOCC2)cc1`, the inhibition was active: 31%.

Take `CCOc1ccc(CCNC(=O)c2cc3c(-c4cccc(OC)c4)nn(C)c3s2)cc1OCC`: the inhibition was -8.14%.

With `CCC(C(=O)NCCc1ccc(Cl)cc1)n1nc(C)c2c(C)n(-c3ccccc3)nc2c1=O` (centres undefined), the inhibition is -7.35%.

With `Cc1cccc(C(CC(=O)NCC2(c3ccccc3)CCCC2)c2ccccc2)c1O` (centres undefined), the inhibition stood at 6.45%.

`CCN(C(=O)NCc1noc2ccccc12)c1cc(C)ccc1C`: the inhibition was determined as 3.58%.

As for `CCCCCOc1ccc(C(=O)N(Cc2ccccc2)C2CCS(=O)(=O)C2)cc1` (centres undefined), the inhibition is -2.08%.

Take `CCOC(=O)c1nc(Nc2cccc(C)c2)c2ccccc2n1`: the inhibition worked out at 7.72%.

As to `Cc1ccc2nc(/C(C#N)=C/c3ccc(-c4cccc(Cl)c4)o3)[nH]c2c1`, the inhibition was -1.66%.

In the case of `CCOc1ccc(CNC(=O)CCn2cccn2)cc1OC`, the inhibition was determined as 21.8%.

Take `Cc1cccc(C(=O)Nc2ccc(N3CCC(CCN4CCOCC4)CC3)c(C(=O)O)c2)c1`: the inhibition was -18.1%.

With `O=C(Nc1ccc(S(=O)(=O)N2CCC(c3nc4ccccc4s3)CC2)cc1)c1ccccc1F`, the inhibition is 27.1%.

For the compound `Cc1ccc(S(=O)(=O)CC(=O)c2ccc(C)c([N+](=O)[O-])c2)cc1`, the inhibition was active: 78.8%.

Consider `CN1CCN(NC(=O)CSc2ccc(Cl)cc2Cl)CC1`, for which the inhibition was active: 45.8%.

As to `Cn1cc(CNCCCn2ncc3ccccc32)c(-c2ccccc2F)n1`, the inhibition is active: 37.2%.

As for `COc1cccc(NC(=O)Cn2c(=O)n(CCCC(=O)NCc3ccc4c(c3)OCO4)c(=O)c3ccccc32)c1`, the inhibition was determined as 22%.

In the case of `Cc1ccc(CNC(=O)c2c(-c3ccccc3F)noc2C)o1`, the inhibition stood at 9.06%.

Consider `COC(=O)c1c(NC(=O)c2ccc(S(=O)(=O)N3CCCCC3C)cc2)sc2c1CCN(C(C)C)C2` (centres undefined), for which the inhibition was -14.5%.

As for `CCOC(=O)c1ccccc1NC(=O)N(Cc1ccc(C)cc1)Cc1cccn1-c1nnc(N2CCCC2=O)s1`, the inhibition is -6.53%.

With `COc1ccc(-c2noc(CSc3nnc(-c4ccncc4)n3-c3ccccc3)n2)cc1`, the inhibition is -0.453%.

Turning to `Cc1ccccc1-c1noc(CSc2nnc(Cc3ccccc3)n2-c2ccc(F)cc2)n1`, the inhibition was -4.71%.

Take `CCC(C)n1c(=N)c(S(=O)(=O)c2ccc(C)cc2)cc2c(=O)n3cc(C)ccc3nc21` (centres undefined): the inhibition is -13.9%.

Turning to `COCCCNC(=O)c1ccc(NC(=O)N2CCCCc3ccccc32)cc1`, the inhibition is -1.29%.

Consider `COc1ccc(-c2nc(CCNC(=O)c3cc(OC)c(OC)c(OC)c3)cs2)cc1`, for which the inhibition was -6.22%.

For the compound `CCCN1CCN(CC2=C(C(=O)OCC)C(c3ccc(Cl)cc3)NC(=O)N2)CC1` (centres undefined), the inhibition was determined as 3.04%.

Take `COc1ccc(Cl)cc1NC(=O)CCCn1c(=O)c2cccn2c2cccnc21`: the inhibition is -8.01%.

Consider `COc1ccc(CNC(=O)Cc2c(C)c3c(cc(C)c4c(C)coc43)oc2=O)cc1`, for which the inhibition is -5.78%.

Regarding `COc1ccc(-c2c(C)nn3c(N4CCC(C(=O)NCCC(C)C)CC4)cc(C)nc23)cc1OC`, the inhibition is -4.62%.

As for `Cc1ccc(-n2ncc3c(NNC(=O)c4ccccc4C)ncnc32)cc1`, the inhibition is -9.54%.

For the compound `CC(C)c1ccc(C2c3c(-c4ccccc4O)n[nH]c3C(=O)N2CCc2ccccc2)cc1` (centres undefined), the inhibition came to 2.82%.

Regarding `CC(C)CCn1c(SCc2ccc(F)cc2Cl)nc2ccsc2c1=O`, the inhibition was -3.81%.

As for `Cc1ccc(Cn2c(=O)c3c(nc4n3CCN4c3cc(C)cc(C)c3)n(C)c2=O)cc1`, the inhibition stood at 3.92%.

Turning to `CCN(CC)CCn1c(=N)n(CC(O)COc2ccccc2C)c2ccccc21` (centres undefined), the inhibition was found to be 1.78%.

`COc1ccccc1/C=C/CN1CCC(Oc2ccc(C(=O)N3CCCC3)cc2)CC1`: the inhibition was active: 47.1%.

For `CCCCOc1ccc(S(=O)(=O)Nc2cccc(-c3ccc(N4CCOCC4)nn3)c2)cc1`, the inhibition stood at 9.44%.

As for `COc1ccccc1-c1c(C)nn2c(N3CCN(c4ccc(Cl)cc4)CC3)cc(C)nc12`, the inhibition is -1.56%.

For `CCOC(=O)c1ccc(Nc2nc(C)cc(C)n2)cc1`, the inhibition amounted to 0.257%.

`CC(Sc1nc(-c2ccccc2)c(C#N)c(=O)[nH]1)C(=O)Nc1ccc(F)cc1` (centres undefined): the inhibition is -25.1%.

Take `COc1ccc(N(CC(=O)N2CCN(c3cc(C)ccc3C)CC2)S(=O)(=O)c2c(C)noc2C)cc1`: the inhibition is -1.98%.

Consider `CCCC[n+]1ccn(-c2nc3c([N+](=O)[O-])cccc3n2C)c1`, for which the inhibition was active: 34.1%.

As for `Cc1c(C(=O)NCCN(C)C)oc2c1-c1nn(Cc3ccccc3Cl)cc1CC2`, the inhibition is -1.61%.

With `Cc1cccc(C2NC(=O)c3c(sc4c3CCN(C)C4)N2)c1O` (centres undefined), the inhibition was determined as 2.15%.

For the compound `CCOC(=O)c1ccc(NC2=CC(c3ccc(Br)cc3)N(c3ccc(C(=O)OCC)cc3)C2=O)cc1` (centres undefined), the inhibition worked out at 7.13%.

For `COC(=O)c1cc(Cl)c(NC(=O)/C=C/c2ccc(Cl)cc2Cl)cc1OC`, the inhibition is -0.523%.

On to `COc1cccc(Cc2nc3ccccc3nc2SCC(=O)N2CCc3ccccc32)c1`, for which the inhibition was determined as 5.55%.

For the compound `CCOC(=O)c1ccc(NC(=O)C(=O)NCc2ccco2)cc1`, the inhibition was 13.7%.

With `Cc1cccc(Oc2nc3c(C)cccn3c(=O)c2/C=C(\C#N)c2nc3ccccc3s2)c1`, the inhibition is -5.7%.

For the compound `O=C(NC1CC2CCC(C1)N2Cc1ccccc1)c1ccccc1Br` (centres undefined), the inhibition was active: 67.5%.

For `COc1ccc(Br)c2c1-c1nc(NC(=O)c3ccccc3SC)sc1C2`, the inhibition is -19.7%.

For the compound `O=S(=O)(c1ccccc1)c1nc(-c2cccc(Cl)c2)oc1NCc1ccccc1`, the inhibition was -2.76%.

Take `CCOc1ccc(N2CC(c3nc4ccccc4n3CCCOc3ccc(OC)cc3)CC2=O)cc1` (centres undefined): the inhibition is -2.77%.

On to `COCCNC(=O)CSc1nnc(-c2ccc(OC)c(OC)c2)c(-c2ccc(OC)c(OC)c2)n1`, for which the inhibition stood at 1.54%.

For the compound `Nc1nc(CN2CCN(Cc3ccccc3)CC2)nc(N2CCCc3ccccc32)n1`, the inhibition was active: 63.4%.

In the case of `CCOC(=O)c1cc(-c2ccc(F)cc2)n(CCC(=O)Nc2ccccc2OC)c1C`, the inhibition stood at 2.82%.

Regarding `COC(=O)c1ccc2nc(C)cc(Nc3ccc(O)cc3)c2c1`, the inhibition is -0.837%.

Take `COc1ccc(-c2cn[nH]c2-c2ccc(OCc3ccc(F)cc3)cc2O)cc1OC`: the inhibition was active: 44.7%.

For the compound `COc1ccc(NC(=O)Cn2c(=O)n(-c3ccc(Cl)cc3)c(=O)c3c(C)c(C(=O)N(C)C)sc32)cc1Cl`, the inhibition is -1.85%.

With `CC(Sc1ncc(S(=O)(=O)c2ccc(C(C)C)cc2)c(N)n1)C(=O)Nc1ccccc1` (centres undefined), the inhibition was determined as 5.98%.

Turning to `Cc1ccc(CSc2nc(=O)c3c(C)cc(C)nc3n2C2CC2)cc1`, the inhibition was -8.22%.

As to `COC(=O)CS(=O)(=O)c1ccsc1C(=O)Nc1ccc(F)cc1`, the inhibition was active: 38.3%.

Turning to `COc1ccc(NC(=O)c2c(NCc3ccc(C)o3)sc3c2CCC(C)C3)cc1` (centres undefined), the inhibition was -2.9%.

For the compound `CC1CN(C(=O)CCC(=O)NCc2cccs2)c2ccccc2O1` (centres undefined), the inhibition is 15.5%.

Take `Cc1ccc(S(=O)(=O)c2cn(C)c3cc(N4CCN(c5ccccc5)CC4)c(F)cc3c2=O)cc1`: the inhibition came to 25.4%.

For `CCOC(=O)c1ccc(NC(=O)c2nc(S(=O)(=O)Cc3ccccc3)ncc2Cl)cc1`, the inhibition is -9.81%.

Consider `CCOc1ccccc1NC(=O)C1CCN(S(=O)(=O)c2ccc(Br)cc2)CC1`, for which the inhibition was -5.45%.

Turning to `Cc1ccc(-n2nc(C(=O)N3CCCCC3C)c(=O)n(C)c2=O)cc1` (centres undefined), the inhibition is -0.466%.

With `Cc1nn(CCCC(=O)NCc2ccccc2)c(=O)c2c1sc1ccccc12`, the inhibition came to 23.5%.

In the case of `CC(=O)c1cccc(N2C(=NC(=O)CCc3ccccc3)SC3CS(=O)(=O)CC32)c1` (centres undefined), the inhibition is active: 31.8%.

Consider `COc1ccc(Cn2nnc3c(=O)[nH]c(C4CCCN(C(=O)c5ccccc5Cl)C4)nc32)cc1OC` (centres undefined), for which the inhibition came to 3.55%.

Turning to `Cc1ccc(C)c(NC(=O)C(=O)NCC(c2cccnc2)N2CCN(c3ccc(F)cc3)CC2)c1` (centres undefined), the inhibition is -20.7%.
